No constants are given. Whether binding was seen depends on the method and setting. In cells and extracts the contact can be indirect. Some results given as binding are weak or reduced against the parent protein; the word gives no strength. For some assays here: Tags and fused reporters may be left off the sequences shown.
Assays:
Test in all cases: co-IP; 293T cells co-transfected; lysed in RIPA buffer; TTC3 immunoprecipitated by Myc antibody (9E10), POLG or Hsp70 by Flag antibody (M2); Protein G beads, 4°C; immunoblot
[1] = target: T1, Myc-tagged TTC3Δ650 (TTC3 that lacks the N-terminal 1∼650 residues) (human) (UniProt P53804)
T1 sequence: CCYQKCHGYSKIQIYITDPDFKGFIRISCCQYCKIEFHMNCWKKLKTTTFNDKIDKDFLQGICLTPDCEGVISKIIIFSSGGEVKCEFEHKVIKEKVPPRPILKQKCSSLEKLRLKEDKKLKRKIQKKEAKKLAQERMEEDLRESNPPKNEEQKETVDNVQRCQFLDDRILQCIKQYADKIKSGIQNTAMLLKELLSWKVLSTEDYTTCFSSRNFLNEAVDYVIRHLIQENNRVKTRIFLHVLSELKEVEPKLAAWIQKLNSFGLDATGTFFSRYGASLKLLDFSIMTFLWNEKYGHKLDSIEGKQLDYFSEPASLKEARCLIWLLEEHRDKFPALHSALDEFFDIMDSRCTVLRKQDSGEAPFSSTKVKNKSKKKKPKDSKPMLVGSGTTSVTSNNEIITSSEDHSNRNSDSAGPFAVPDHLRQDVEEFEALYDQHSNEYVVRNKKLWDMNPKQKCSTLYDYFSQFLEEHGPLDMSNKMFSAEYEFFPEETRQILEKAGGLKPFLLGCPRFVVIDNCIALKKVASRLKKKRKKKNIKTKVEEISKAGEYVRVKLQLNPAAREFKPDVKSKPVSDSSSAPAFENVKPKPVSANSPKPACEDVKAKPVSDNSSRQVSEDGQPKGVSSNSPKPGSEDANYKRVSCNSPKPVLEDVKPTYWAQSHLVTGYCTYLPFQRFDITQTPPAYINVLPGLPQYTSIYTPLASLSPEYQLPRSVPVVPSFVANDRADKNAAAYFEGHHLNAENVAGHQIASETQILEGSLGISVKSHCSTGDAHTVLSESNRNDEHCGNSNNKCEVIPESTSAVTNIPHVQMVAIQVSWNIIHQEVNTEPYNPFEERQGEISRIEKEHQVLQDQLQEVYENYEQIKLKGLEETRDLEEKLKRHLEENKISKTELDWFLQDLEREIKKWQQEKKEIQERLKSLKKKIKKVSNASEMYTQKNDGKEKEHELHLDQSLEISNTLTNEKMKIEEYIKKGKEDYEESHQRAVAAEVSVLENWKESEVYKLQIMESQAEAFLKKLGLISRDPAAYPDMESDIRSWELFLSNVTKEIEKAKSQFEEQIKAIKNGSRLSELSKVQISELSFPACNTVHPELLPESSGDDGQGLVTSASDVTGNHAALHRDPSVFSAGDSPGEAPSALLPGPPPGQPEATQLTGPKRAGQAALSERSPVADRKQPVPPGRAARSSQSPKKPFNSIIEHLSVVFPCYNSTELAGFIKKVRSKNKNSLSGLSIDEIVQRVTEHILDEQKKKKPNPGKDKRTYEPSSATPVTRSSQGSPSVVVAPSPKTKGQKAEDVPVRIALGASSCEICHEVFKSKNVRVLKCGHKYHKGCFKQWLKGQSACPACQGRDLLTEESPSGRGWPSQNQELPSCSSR

Chains of the proteins cited; added tags and fusions are not shown.
UniProt P54098: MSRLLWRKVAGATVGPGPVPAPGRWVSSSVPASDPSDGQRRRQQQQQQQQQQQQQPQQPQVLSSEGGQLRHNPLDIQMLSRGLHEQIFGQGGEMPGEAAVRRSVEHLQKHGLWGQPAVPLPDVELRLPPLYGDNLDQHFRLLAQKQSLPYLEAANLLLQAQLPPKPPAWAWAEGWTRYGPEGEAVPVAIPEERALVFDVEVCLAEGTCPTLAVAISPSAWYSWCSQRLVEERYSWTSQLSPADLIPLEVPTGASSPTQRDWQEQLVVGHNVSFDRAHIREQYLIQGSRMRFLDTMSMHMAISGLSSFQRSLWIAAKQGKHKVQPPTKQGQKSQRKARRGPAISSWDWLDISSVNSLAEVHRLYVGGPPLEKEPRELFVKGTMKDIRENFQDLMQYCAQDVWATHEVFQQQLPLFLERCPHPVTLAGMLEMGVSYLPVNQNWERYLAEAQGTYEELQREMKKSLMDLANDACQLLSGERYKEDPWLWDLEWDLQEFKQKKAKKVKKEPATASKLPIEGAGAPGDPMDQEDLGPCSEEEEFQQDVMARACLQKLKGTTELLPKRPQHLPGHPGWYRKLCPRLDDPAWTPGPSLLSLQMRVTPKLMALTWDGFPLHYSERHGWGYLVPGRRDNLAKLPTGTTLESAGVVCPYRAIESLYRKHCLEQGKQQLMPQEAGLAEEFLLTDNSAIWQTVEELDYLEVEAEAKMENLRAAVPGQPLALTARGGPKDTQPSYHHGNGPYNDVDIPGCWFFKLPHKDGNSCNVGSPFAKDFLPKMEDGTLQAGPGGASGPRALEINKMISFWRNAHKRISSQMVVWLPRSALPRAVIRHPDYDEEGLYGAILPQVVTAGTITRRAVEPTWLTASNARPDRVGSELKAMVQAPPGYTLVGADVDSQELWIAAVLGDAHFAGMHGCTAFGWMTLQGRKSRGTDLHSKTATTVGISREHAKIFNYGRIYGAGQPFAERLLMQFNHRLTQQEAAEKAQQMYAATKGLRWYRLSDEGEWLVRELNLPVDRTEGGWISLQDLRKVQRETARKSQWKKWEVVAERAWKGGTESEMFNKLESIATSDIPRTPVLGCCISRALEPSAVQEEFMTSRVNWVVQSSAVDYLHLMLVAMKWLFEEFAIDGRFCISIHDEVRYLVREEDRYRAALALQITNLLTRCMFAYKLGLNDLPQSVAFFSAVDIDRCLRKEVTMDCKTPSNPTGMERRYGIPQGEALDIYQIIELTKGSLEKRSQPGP

[2] = target: T2, Myc-tagged TTC3 N-terminal fragment of 1∼230 residues (human) (UniProt P53804)
T2 sequence: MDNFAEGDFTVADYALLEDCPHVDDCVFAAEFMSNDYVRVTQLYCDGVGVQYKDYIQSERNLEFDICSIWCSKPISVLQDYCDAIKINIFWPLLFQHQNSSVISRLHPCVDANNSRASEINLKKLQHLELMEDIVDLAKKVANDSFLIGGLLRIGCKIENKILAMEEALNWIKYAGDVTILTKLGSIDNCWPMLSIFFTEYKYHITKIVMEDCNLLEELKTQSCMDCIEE

[3] = target: T3, Myc-tagged TTC3 fragment of 231∼650 residues (human) (UniProt P53804)
T3 sequence: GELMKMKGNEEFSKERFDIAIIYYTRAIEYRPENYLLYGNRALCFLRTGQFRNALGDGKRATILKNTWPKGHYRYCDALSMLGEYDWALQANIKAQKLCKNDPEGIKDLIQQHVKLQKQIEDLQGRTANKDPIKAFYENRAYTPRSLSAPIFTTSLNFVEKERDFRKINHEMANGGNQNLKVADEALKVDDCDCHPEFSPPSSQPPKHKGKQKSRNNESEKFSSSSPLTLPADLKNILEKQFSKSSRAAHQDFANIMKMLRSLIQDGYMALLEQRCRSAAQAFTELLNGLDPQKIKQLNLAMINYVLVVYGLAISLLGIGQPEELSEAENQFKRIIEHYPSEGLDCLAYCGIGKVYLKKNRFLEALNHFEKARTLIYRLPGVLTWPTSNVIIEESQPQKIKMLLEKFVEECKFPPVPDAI

[4] = target: Myc-tagged TTC3Δ230 (deletion of N-terminal 1∼230 residues) (human) (UniProt P53804)
[5] = target: Myc-tagged wild-type full-length TTC3 (pCMV-Myc-TTC3) (human) (UniProt P53804)

binding [1]: no binding
binding [2]: binds
binding [3]: binds
binding [4]: binds
binding [5]: binds
Substance: 3xFlag-tagged full-length POLG (p3xFLAG-CMV10) (from UniProt P54098 1-1239)

Source: PMC5739749
